# Test results published in the supplement of paper PMC11417369.
# ± gives the standard deviation of the averaged measurements. This is one part of the list.
# Test system: PfAP2-EXP AP2 domain (GST-tagged)
# Experiment: gcPBM binding intensity (ln(normalized median fluorescence intensity)); higher = stronger DNA binding
# In short: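 Using an Agilent 4 × 180k array, primer-extended double-stranded 36-bp intergenic genomic probes and negative controls were exposed for 1 h to GST-fused P. falciparum DNA-binding domains expressed in E. coli. Binding was carried out in 1× PBS with 1% milk, 0.2 mg/ml BSA, 0.5% salmon testes DNA and 0.03% Triton X-100, and protein was detected with Alexa488 anti-GST antibody and a 488 nm scan. Binding intensity is the highest Masliner-normalised natural-log median intensity across replicate spots of either probe orientation.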
row,Sequence,gcPBM binding intensity (ln)
1,AATTGCTCGATATATGCACACAGTTTTGTTATTTTT [CACACA_site8465],8.94 ± 0.36
2,AACATAAATTACTTTTTACACACTAATATAAAATAC [CACACA_site8297],8.51 ± 0.2
3,ACTTTCAAGGATGTACGTACATATGTATTTTATAAC [XGTACX_site6714],8.88 ± 0.28
4,TCATGTAACCATTCATGTACTCAAAAAAAAAAAAAA [XGTACX_site1027],8.22 ± 0.44
5,TTTTTTATGATTAACACACACACAAAAAAAAAAAAA [CACACA_site4130],8.36 ± 0.57
6,AAATGAAAGAACAGCACACATATATATTATATATAA [CACACA_site2002],8.53 ± 0.64
7,TTTTATATATATATATATATATATATATATGTATAT [CACACA_negctrl_site173],8.97 ± 0.014
8,AAAAAAAAAACAAATACACACGCACCCAAAAAAAAA [CACACA_site8166],8.72 ± 0.3
9,AACATATTTTTTCTTAAACACACACCGATATATATA [CACACA_site8919],8.62 ± 0.3
10,AATATATATTTCTAAGATAAAACCCAAGGATAAAAA [CACACA_negctrl_site735],8.53 ± 0.58
11,TCTGTAAATATGTATACACACATATCTGATCAATAT [CACACA_site5743],8.76 ± 0.39
12,AATGGGTTAGCACATACACACCAATATATTATAGAT [CACACA_site7444],8.65 ± 0.57
13,GCAAAATTTCCTAAGGTGCTTTTATTTTACACCGTT [GTGCAC_site9923],8.82 ± 0.29
14,CTTTTATTGCTCTATATGCACACCTTAATTCTTCAT [CACACA_site2195],9.11 ± 0.33
15,AAAACCTAAAAGTCTTAAATTTTAAATATACCTACA [GTGCAC_negctrl_site492],8.29 ± 0.35
16,TTTATTACCATATTTTGTACACACATCTTTATCTCA [XGTACX_site6842],8.99 ± 0.51
17,ATATAAATGATATGTACACACATTTATATTTATAAA [CACACA_site7600],8.47 ± 0.32
18,ACATTGACATGTCGAAGTACTCAAGAAGCATACAAT [XGTACX_site3948],8.86 ± 0.42
19,ATTAAAATGGTATGTGCGCACATAATATATATATGT [GTGCAC_site9572],9.12 ± 0.39
20,ACTCTATACATCTAATGTACATGGAAAAAAAAATTC [XGTACX_site733],8.86 ± 0.39
21,TTCTTACATAAAATATCACACACATAAAAAAACAAT [CACACA_site8576],9 ± 0.33
22,GTAATAAGAATTATAGTGCAATGTAATACATTTATA,8.47 ± 0.13

row,Sequence,gcPBM binding intensity (ln)
1,TGGAAAATTATTAACACACACATATAAATATATATA [CACACA_site46],8.4 ± 0.45
2,AATACAACATAATGAAGTACTGTATTTTATATTACT [XGTACX_site4885],8.35 ± 0.38
3,TAATTTGAACGGTACAGTACTCTTTTTCTTTTTCAT [XGTACX_site5534],8.55 ± 0.42
4,ATATATTTTTTCAATTGTACGTTTTAATAATATTTA [XGTACX_site2130],8.88 ± 0.42
5,ATGAAATCTTTAGAATATAGATGATGTTATTTAATT [XGTACX_negctrl_site511],8.11 ± 0.46
6,TTTCTTTGAATAAATACACACGAGAAATGAAAGTAG [CACACA_site8490],9.13 ± 0.4
7,TAAAGGAGCCTATGAACACACACATGTACTTATATT [CACACA_site9351],8.56 ± 0.4
8,AATTGTTTGTTTGGGTGTACATGGTTCTATATAAAT [XGTACX_site7940],9.11 ± 0.38
9,AATAAAATATAAACATTATATATATATATATATATA [GTGCAC_negctrl_site58],10.3 ± 0.38
10,ATTTTTTCTTTTTTTTTTCCGTTTTTTTGGACATTT [CACACA_negctrl_site1174],8.52 ± 0.45
11,AAATTAAACAATAAATGTACATATATATTTGTATAT [XGTACX_site1092],8.53 ± 0.47
12,ATAAAAAATAAATAAGGTACAGAACATTTATACATT [XGTACX_site1783],8.74 ± 0.36
13,AACAAGGTATTAGGGTGTACTATATATATTTATATT [XGTACX_site7776],8.51 ± 0.37
14,CTTTTTTATTTTTCAACACACATAATAAATTTCTAT [CACACA_site1037],8.62 ± 0.3
15,GGTTAAAAAAAGCATACACACTATCCTCTTTGCTCT [CACACA_site7246],8.65 ± 0.37
16,ATATTTTACAAATGCACACATAATTTTTTTTTTTTT [CACACA_site2763],8.59 ± 0.15
17,GAACCTTTAAAATACACACCCAAATCCTTTGAAATA [CACACA_site3630],8.34 ± 0.47
18,TACATAAATACATACATACACACATATATATATATA [CACACA_site2105],10 ± 0.34
19,TTTTTTTTTATATATACACACAATAAATAAATATAA [CACACA_site2954],8.34 ± 0.45
20,TAACTTTATTTTCCTGTACACACATTTGACATATTA [CACACA_site9116],8.94 ± 0.49
21,TCAAATTACGTAAGAACATGCGATATAAGAAATACG [TGCATGCA_site691],9.09 ± 0.4
22,CTCTAATTAATATTTGTACACACATATTTAACCTAC [CACACA_site9043],8.67 ± 0.3

row,Sequence,gcPBM binding intensity (ln)
1,TATATATTAATCAAAGTGCAATAATAAAATAAAAGT [GTGCAC_site9490],9.18 ± 0.29
2,AGCAGACACCAACACACACACATATATATATATATA [CACACA_site337],10.1 ± 0.38
3,TTTATACAAAAGAACAGTACAATAAAGGATTTATGA [XGTACX_site811],8.53 ± 0.29
4,CATATTCCCCCCCACACACACACACGCATACATACC [CACACA_site7148],11.1 ± 0.19
5,TAAATAAAATACAAATGTACATAAATAATAAATATA [XGTACX_site1813],8.76 ± 0.41
6,ATATAAAAAATATAAGGTACACATATATGTAGATAT [XGTACX_site6792],8.93 ± 0.42
7,AATTATTTTAAATATTGTACTATTACAGAATGGTGT [XGTACX_site5693],8.79 ± 0.43
8,CTTGGGAAGTATTCAGTGCAAAATATAAGCAGGTCA [GTGCAC_site9758],9.09 ± 0.36
9,TATATTATCAAAATGGTGCAATAATTTCTATATTAT [GTGCAC_site9772],8.46 ± 0.26
10,AAAAGAAATAAGGATACACACTATTGATAAAAGTAG [CACACA_site4309],8.79 ± 0.41
11,TATTACAAATAATACCGTACACAAATGTTTTTTTAT [XGTACX_site7977],8.4 ± 0.42
12,TCGTGGGAAAATATTACACACATTTACTATAGTATC [CACACA_site5836],8.48 ± 0.41
13,ATATATATATTGAAAAGTACATATATATATATATTA [XGTACX_site1560],9.13 ± 0.071
14,TGGATAATCAAAAATTGTACAAGTGTTGTTATTGGT [XGTACX_site8010],8.69 ± 0.37
15,ACCGGTGGAACGTTTTGTACATATATAATAATATAT [XGTACX_site2143],8.62 ± 0.5
16,TAGGTAAATGCAAATTGGTTTAAATCAAAATATAAA [XGTACX_negctrl_site250],8.5 ± 0.62
17,TTTATTATTTTAACGTGTACAAGGTATATAATATTC [XGTACX_site5241],8.57 ± 0.2
18,TGATATTATATATATACACACATGTATGTATTTATA [CACACA_site4874],8.32 ± 0.42
19,GTATCAAAAGAATACACACACACATACAGATATATA [CACACA_site5975],8.61 ± 0.67
20,ATAAACAAACATAAATCTGATTTTAATTTTTTTAAG [CACACA_negctrl_site313],7.88 ± 0.44
21,TTATATTTTCTCCGCGTGCACATATGTATACTATAC,9.34 ± 0.23
22,TTTTTGTTTTTTTGTTTATCGTTCGTGACTACATGA [TGCATGCA_negctrl_site124],8.74 ± 0.51

row,Sequence,gcPBM binding intensity (ln)
1,GAAATCTAAATAGAAACACACATATATATATATATA [CACACA_site3863],10.1 ± 0.61
2,TAGGGTAGTTATAATTGTACTTTTCTCCAAAAAAAA [XGTACX_site7321],8.32 ± 0.52
3,AAAAATAAAAAATATAAAAATATAAAAATATAAAAA [XGTACX_negctrl_site51],8.32 ± 0.38
4,TCTTTTTCATCTTTCAACAAAAAATAATATATGTGT [CACACA_negctrl_site866],8.48 ± 0.52
5,TAAATTTGTGTTATTAAAAAAATGGTTTAAAAATGT [XGTACX_negctrl_site352],8.41 ± 0.34
6,AAATATACAATATTCACACAAAAAAATACATTACAA [CACACA_site5004],8.6 ± 0.52
7,ATATATTTATATTGTACACACATTTATGCATATATA [CACACA_site7502],8.79 ± 0.35
8,TGTTTTTATAAAATAAATAAATATATATATATATAT [CACACA_negctrl_site502],10.1 ± 0.26
9,TTTCTTACAAAAGCTAGAGTTTTTTTTTTTTTTTTT [XGTACX_negctrl_site341],8.5 ± 0.24
10,TTAGTCCATATTTTTGCACACCATTTTTTTTTTTTT [CACACA_site3927],8.9 ± 0.41
11,AGAATAAATATGCACACATGCATATATTTTTACACT [TGCATGCA_site893],8.84 ± 0.27
12,ATCCTTAATATGAACACACAAATATATTGCACATAT [CACACA_site6230],8.88 ± 0.13
13,ATATGCATAAAAAGAGGTACACATAAAATATATATA [XGTACX_site5864],8.98 ± 0.35
14,TATACACATATATAAAGTACATATATGTGTAAAAAA [XGTACX_site8582],8.44 ± 0.35
15,CAGATATTTGTTCATATACACACTTTTGATAAAATA [CACACA_site1219],8.41 ± 0.44
16,AATATTTTTTGTTTTACACACATATATAGATATATA [CACACA_site7662],8.56 ± 0.38
17,TCATATATAAAAAGGGTGCTTTTAAAAGAATGGATT,9.12 ± 0.32
18,CAAAAAATGAAACACACACACACACCCATAAATAAA [CACACA_site1231],8.7 ± 0.54
19,TTTTTTTTTGTATTTTCACACATTTTTTTTTTTTTT [CACACA_site5407],8.47 ± 0.53
20,TTATTTAAACAAATCACACACAAATATATATACATA [CACACA_site2019],8.46 ± 0.62
21,TTTTTTGGGTAAAATTATAAAATATGTATATATAAA [CACACA_negctrl_site27],8.15 ± 0.41
22,CATATTTTCAAAATTAGTACATAAAAAAAAAAATAT [XGTACX_site3101],8.62 ± 0.49
